Laboratory results reported in PubChem BioAssay AID485281 (National Center for Advancing Translational Sciences (NCATS), 2010).
Among all 350,000 compounds or so, about 260 (0.074%) were called active. Inconclusive results, whose numbers are uncertain, are shown with a selection of clear calls. Calls come from the whole dose curve; as a rule, active = well fitted inhibition curve with a large enough effect; inconclusive = small, poorly fitted or top-dose-only effect; inactive = no such curve, though single readings can be large or run the other way. A potency beside an inconclusive call is a rough fit, not a confirmed value.

biological target: Ferritin light chain (Equus caballus) (UniProt P02791); experiment: qHTS Assay for Identification of Novel General Anesthetics; conditions: apoferritin/1-aminoanthracene competitive binding, fluorescence; activity change, negative = displacement: at 77.5 µM (top of the series); note: nearly all actives have a fitted effect of over 20% in size
In short: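 Apoferritin-based anesthetic binding model; compound displacement of fluorescent 1-AMA measured as endpoint fluorescence after 10 minutes at room temperature, scaled to free-ligand and complex controls.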
% is set by controls: 0 for no effect and ±100 for the full control effect; potency is the fitted concentration of half-maximal effect; tags give direction and shape of the fitted curve.

Sequence of UniProt P02791 (P02791 whole entry, looked up): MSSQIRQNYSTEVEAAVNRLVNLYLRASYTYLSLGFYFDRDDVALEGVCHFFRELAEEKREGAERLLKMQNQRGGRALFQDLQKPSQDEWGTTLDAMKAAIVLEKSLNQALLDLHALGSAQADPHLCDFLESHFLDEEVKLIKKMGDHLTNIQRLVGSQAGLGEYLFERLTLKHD

Question: `COc1ccccc1Cn1cc(C(=O)c2ccc(C)cc2)c(=O)c2cc(C)ccc21` was tested. Which Potency did it give?
Answer: inconclusive: 4.47 µM [inhibitor, full curve]

Question: Which Potency does the source give for `Cc1ccc(-n2nc(CO)c(C(=O)NCCCc3ccccc3)n2)cc1C` here?
Answer: inconclusive: 0.891 µM [inhibitor, full curve, poor fit]

Question: How did the Potency turn out when `O=[N+]([O-])c1ccc(N2CCN(CC3CCCCC3)CC2)cc1` was run?
Answer: inconclusive: 44.7 µM [inhibitor, single point]

Question: `O=C(Nc1nc(-c2ccccc2)cs1)c1ccco1` was tested. Which “activity change, negative = displacement” value did it give?
Answer: inactive: -7.91%

Question: Which Potency does the source give for `C/C(=N\NC(=O)CC1N=C(Cc2ccccc2)NNC1=O)c1ccc(Cl)cc1Cl` (stereo unspecified) here?
Answer: inconclusive: 35.5 µM [inhibitor, partial curve]

Question: Which Potency does the source give for `CCc1nnc(NC(=O)CC23CC4CC(CC(C4)C2)C3)s1` here?
Answer: inconclusive: 3.98 µM [inhibitor, full curve, poor fit]

Question: `COC(=O)Nc1ccc(SCC(=O)c2ccccc2)cc1` was tested. Which Potency did it give?
Answer: inconclusive: 25.1 µM [inhibitor, partial curve]

Question: Which Potency does the source give for `Cc1cc(=O)oc(C)c1C(=O)N1CCN(C(c2ccccc2)c2ccccc2)CC1` here?
Answer: inconclusive: 35.5 µM [inhibitor, single point]

Question: Which Potency does the source give for `CCCCn1nnnc1SCC(=O)Nc1sc2c(c1C#N)CCCC2` here?
Answer: inconclusive: 7.94 µM [inhibitor, full curve]

Question: For `Cc1ccc(N(C)C(=O)N2CCN(S(=O)(=O)c3ccc(C)cc3)CC2)cc1`, which “activity change, negative = displacement” value is on record?
Answer: inactive: -12.4%

Question: Which “activity change, negative = displacement” value does the source give for `Cc1ccc(S(=O)(=O)N(Cc2nc(-c3cccc(C)c3)no2)C2CCCCC2)cc1` here?
Answer: inactive: 103%

Question: `Cc1cc(N/C=C/C(=O)c2cccc3ccccc23)no1` was tested. Which Potency did it give?
Answer: inconclusive: 44.7 µM [inhibitor, single point]

Question: How did the “activity change, negative = displacement” value turn out when `COC(=O)N/N=C/c1cccc([N+](=O)[O-])c1` was run?
Answer: inactive: 6.96%

Question: How did the “activity change, negative = displacement” value turn out when `CC(C)[C@H](NC(=O)N1c2ccccc2NC(=O)[C@@H]1C(C)C)C(=O)N[C@H](Cc1ccccc1)C(=O)O` was run?
Answer: inactive: -6.79%

Question: How did the “activity change, negative = displacement” value turn out when `CCCn1c(CNC(=O)c2ccc(F)cc2)nc2ccccc21` was run?
Answer: inactive: -4.54%

Question: Which Potency does the source give for `CCc1nnc(NC(=O)c2cccc(S(=O)(=O)N3CC(c4ccccc4)CC3=O)c2)s1` (stereo unspecified) here?
Answer: inconclusive: 35.5 µM [inhibitor, single point]

Question: How did the Potency turn out when `O=[N+]([O-])c1ccc(N2CCCCC2)cc1N1CCOCC1` was run?
Answer: inconclusive: 28.2 µM [inhibitor, partial curve]

Question: For `CCC(C)(C)c1ccc(OCC(=O)N(C)C)c(C(C)(C)CC)c1`, which Potency is on record?
Answer: inconclusive: 25.1 µM [inhibitor, partial curve]

Question: Which “activity change, negative = displacement” value does the source give for `O=C1c2ccccc2NC(c2ccccn2)N1c1ccccc1F` (stereo unspecified) here?
Answer: inactive: 75%

Question: For `O=Cc1ccc(N2CCCCCC2)cc1`, which Potency is on record?
Answer: inconclusive: 35.5 µM [inhibitor, partial curve]

Question: Which Potency does the source give for `CCOC(=O)N1CCN(C(=O)CSc2nnc(C3COc4ccccc4O3)o2)CC1` (stereo unspecified) here?
Answer: inconclusive: 28.2 µM [inhibitor, single point]

Question: Which “activity change, negative = displacement” value does the source give for `O=C(CSc1cccc[n+]1[O-])Nc1ccccc1Oc1ccccc1` here?
Answer: inactive: -3.43%

Question: `CCCn1c(Nc2ccccc2)nc2ccccc21` was tested. Which Potency did it give?
Answer: inconclusive: 17.8 µM [inhibitor, partial curve]

Question: `CCOC(=O)C(NC(=O)c1ccccc1Cl)(Nc1ccc(C)c(C)c1)C(F)(F)F` (stereo unspecified) was tested. Which “activity change, negative = displacement” value did it give?
Answer: inactive: -11.6%

Question: With `CCC1CCC2(CC1)NC(=O)N(CC(=O)c1c(C)[nH]c3ccccc13)C2=O` (stereo unspecified) as the compound, how does the Potency read?
Answer: inconclusive: 56.2 µM [inhibitor, single point]

Question: With `O=S(=O)(c1ccc(Cl)cc1)c1snnc1-c1ccccc1` as the compound, how does the Potency read?
Answer: inconclusive: 8.91 µM [inhibitor, full curve]

Question: `Cn1cc(CNCc2cnc3ccccn23)c(-c2ccc(Oc3ccccc3)cc2)n1` was tested. Which “activity change, negative = displacement” value did it give?
Answer: inactive: -10.8%

Question: With `CN(C)S(=O)(=O)c1cc(NC(=O)CN2CCN(c3ccc(O)cc3)CC2)ccc1Cl` as the compound, how does the “activity change, negative = displacement” value read?
Answer: inactive: -7.75%

Question: How did the Potency turn out when `Cc1ccc(Nc2nc(=O)c3cccnc3s2)cc1` was run?
Answer: inconclusive: 50.1 µM [inhibitor, single point]

Question: `COC(=O)c1c(C)oc2ccc(N(C(C)=O)S(=O)(=O)c3ccccc3)cc12` was tested. Which “activity change, negative = displacement” value did it give?
Answer: inactive: -7.1%

Question: How did the “activity change, negative = displacement” value turn out when `O=[N+]([O-])c1ccc(-[n+]2nc(-c3ccccc3)nn2-c2ccccc2)cc1` was run?
Answer: inactive: -7.7%

Question: With `O=c1cc(-c2ccccc2Cl)oc2c(NS(=O)(=O)c3cc(Cl)cc(Cl)c3O)ccc(O)c12` as the compound, how does the Potency read?
Answer: inconclusive: 31.6 µM [inhibitor, partial curve]

Question: For `O=C(C1CC1)N1N=C(c2cccc(Br)c2)CC1(O)C(F)(F)F` (stereo unspecified), which Potency is on record?
Answer: inconclusive: 20 µM [inhibitor, partial curve]

Question: With `CCOc1ccc(NC(=O)Nc2cccn(Cc3ccccc3)c2=O)cc1` as the compound, how does the “activity change, negative = displacement” value read?
Answer: inactive: -14.4%

Question: `O=C(COC(=O)CNS(=O)(=O)c1ccccc1)NC12CC3CC(CC(C3)C1)C2` was tested. Which Potency did it give?
Answer: inconclusive: 12.6 µM [inhibitor, partial curve]

Question: How did the Potency turn out when `Cc1ccc(S(=O)(=O)N2CCCCC2C)cc1[N+](=O)[O-]` (stereo unspecified) was run?
Answer: inconclusive: 35.5 µM [inhibitor, single point]

Question: Which “activity change, negative = displacement” value does the source give for `Cc1cccc(N2CCN(Cc3ccc(Br)o3)CC2)c1C` here?
Answer: inactive: -7.44%

Question: `O=[N+]([O-])c1cccc(-c2csc(N/N=C/c3cccc(O)c3)n2)c1` was tested. Which Potency did it give?
Answer: inconclusive: 20 µM [inhibitor, partial curve]

Question: With `Fc1ccc(CNc2ncnc3onc(-c4ccc(F)cc4)c23)cc1` as the compound, how does the “activity change, negative = displacement” value read?
Answer: inactive: 2.97%

Question: How did the “activity change, negative = displacement” value turn out when `CC(C)CCN1CCN(Cc2cccc3nonc23)CC1CCO` (stereo unspecified) was run?
Answer: inactive: -3.92%

Question: How did the “activity change, negative = displacement” value turn out when `COC(=O)C1CCN(c2ccc([N+](=O)[O-])cc2)CC1` was run?
Answer: inactive: -8.19%

Question: With `CC(=O)N1CCN=C1SCc1c(F)cccc1Cl` as the compound, how does the Potency read?
Answer: inconclusive: 22.4 µM [inhibitor, partial curve]

Question: With `COc1cc(CNCCO)ccc1OC1CCCC1` as the compound, how does the Potency read?
Answer: inconclusive: 35.5 µM [inhibitor, partial curve]

Question: Which Potency does the source give for `COC(c1ccccc1)c1nnc(CCC(=O)NC2C3CC4CC(C3)CC2C4)o1` (stereo unspecified) here?
Answer: inconclusive: 35.5 µM [inhibitor, single point]

Question: Which “activity change, negative = displacement” value does the source give for `CCOC(=O)Cc1csc(NC(=O)CN2CCN(CC)CC2)n1` here?
Answer: inactive: -6.21%

Question: Which Potency does the source give for `O=C(NCCCc1ccccc1)c1ccccc1O` here?
Answer: inconclusive: 12.6 µM [inhibitor, partial curve]

Question: How did the Potency turn out when `COc1ccc(C(=O)COC(=O)C(C(C)C)N2C(=O)C3C4C=CC(C4)C3C2=O)cc1` (stereo unspecified) was run?
Answer: inconclusive: 35.5 µM [inhibitor, single point]

Question: `Cc1ccc(C2(C)NC(=O)N(CC(=O)Nc3ccc4c(c3)OCO4)C2=O)cc1` (stereo unspecified) was tested. Which Potency did it give?
Answer: inconclusive: 35.5 µM [inhibitor, single point]

Question: With `Cc1ccc(-n2ncc(C(=O)NC3CC3)c2C2CCN(C(=O)OC(C)(C)C)CC2)c(C)c1` as the compound, how does the Potency read?
Answer: inconclusive: 39.8 µM [inhibitor, single point]

Question: With `CC(C)(C)c1ccc(C(=O)NCC(=O)OCC(=O)Nc2nc(-c3ccc(F)cc3)cs2)cc1` as the compound, how does the Potency read?
Answer: inconclusive: 7.08 µM [inhibitor, full curve, poor fit]

Question: For `COc1ccc(NC(=O)/C(Cl)=C(/Cl)S(=O)Cc2ccc(C)cc2)cn1` (stereo unspecified), which Potency is on record?
Answer: inconclusive: 14.1 µM [inhibitor, partial curve]

Question: Which Potency does the source give for `Cc1ccccc1CC1(CO)CCCN(Cc2ccc(C#CC(C)(C)O)cc2)C1` (stereo unspecified) here?
Answer: inconclusive: 31.6 µM [inhibitor, partial curve]

Question: `Cc1nnsc1NC(=O)OCc1ccc(C(C)(C)C)cc1` was tested. Which “activity change, negative = displacement” value did it give?
Answer: inactive: -11.5%

Question: For `O=C1/C(=C/c2ccc(O)cc2)SC(=S)N1CC1CCCO1` (stereo unspecified), which Potency is on record?
Answer: inconclusive: 14.1 µM [inhibitor, partial curve]

Question: How did the Potency turn out when `CCOC(=O)c1c(C)[nH]c(C(=O)Cn2nnc(-c3ccccc3Cl)n2)c1C` was run?
Answer: inconclusive: 8.91 µM [inhibitor, partial curve]

Question: Which “activity change, negative = displacement” value does the source give for `COc1ccc(C(=O)Nc2nnc(S(=O)(=O)N3CCCc4ccccc43)s2)cc1` here?
Answer: inactive: -5.89%

Question: Which Potency does the source give for `Cc1ccc(CC2CC(=O)N(CCc3ccccc3)C2=O)cc1` (stereo unspecified) here?
Answer: inconclusive: 25.1 µM [inhibitor, partial curve]

Question: Which Potency does the source give for `Cc1csc(-c2cnn(-c3ccccc3)c2NC(=O)c2ccc(C(F)(F)F)cc2)n1` here?
Answer: inconclusive: 20 µM [inhibitor, partial curve]

Question: How did the Potency turn out when `CCNC(=O)NC(=O)C(C)SCc1ccccc1C` (stereo unspecified) was run?
Answer: inconclusive: 25.1 µM [inhibitor, partial curve, poor fit]

Question: How did the Potency turn out when `O=C(CSCc1ccccc1Cl)Nc1ccc2c(c1)OCCO2` was run?
Answer: inconclusive: 56.2 µM [inhibitor, single point]

Question: With `O=C(CCSc1ccccc1)NC(=O)COC(=O)C1CCCCC1` as the compound, how does the Potency read?
Answer: inconclusive: 11.2 µM [inhibitor, partial curve]

Question: Which Potency does the source give for `COCCn1c(C)cc(C2=NNC(=Nc3ccc(Cl)cc3Cl)SC2)c1C` here?
Answer: inconclusive: 17.8 µM [inhibitor, partial curve]

Question: `Cc1ccc(NC(=O)CSc2ccc3nnc(CCNS(=O)(=O)c4ccccc4)n3n2)cc1Cl` was tested. Which Potency did it give?
Answer: inconclusive: 50.1 µM [inhibitor, single point]

Question: Which “activity change, negative = displacement” value does the source give for `Cc1ccc(C2C3=C(CCCC3=O)Nc3c2c(C)nn3-c2ccccn2)o1` (stereo unspecified) here?
Answer: inactive: -4.1%

Question: Which “activity change, negative = displacement” value does the source give for `Cc1ccccc1NC(=O)c1cccc2c(=O)c3c([nH]c12)CCCC3` here?
Answer: inactive: -2.78%

Question: With `CCc1ccc(C(=O)COC(=O)c2n[nH]c3ccccc23)cc1` as the compound, how does the Potency read?
Answer: inconclusive: 31.6 µM [inhibitor, partial curve]

Question: With `O=c1[nH]c2ccccc2n1C1CCCCC1` as the compound, how does the Potency read?
Answer: inconclusive: 39.8 µM [inhibitor, partial curve]

Question: Which Potency does the source give for `COc1cc(CC(=O)NCCc2ccc(OCc3ccccc3)cc2)c([N+](=O)[O-])cc1OC` here?
Answer: inconclusive: 8.91 µM [inhibitor, partial curve]

Question: For `Cc1ccccc1NC(=O)CSc1nnc(COc2ccc(Cl)cc2)o1`, which Potency is on record?
Answer: inconclusive: 12.6 µM [inhibitor, partial curve]

Question: How did the “activity change, negative = displacement” value turn out when `C=CCNC1=C(Cl)C(=O)N(c2cccc(Cl)c2Cl)C1=O` was run?
Answer: inactive: -10.9%

Question: For `CCOc1ccc(Cn2nnc(C(=O)NCCc3ccccc3)c2N)cc1`, which Potency is on record?
Answer: inconclusive: 2.82 µM [inhibitor, full curve]
